Data: CN114395034A

Biological target: 冠状病毒RaTG13 RBD蛋白 (coronavirus RaTG13)
Conditions: remark: other sources report otherwise

B1: IMCAS-72 (antibody)
chain 1: DQVQLVESGGGLVQPGGSLRLSCAASGFTFSSYGMHWVRQAPGKGLEWVAVISYDGSDKYYADSVKGRFTISRDNSKNTLYLQMNSLRAEDTAVYYCARDRDRFGDQGGWFDPWGQGTLVTVSS[human IgG1 constant region skipped]
chain 2: [about 100 residues skipped][about 100 residues skipped]
Kd: 6.21 nM
